Patent US20260306644A1, “ANTIBODY RECRUITING MOLECULES FOR THE TREATMENT OF CORONAVIRUS DISEASE-19” (priority 2023, published 2026)
pEC50: −log10 of the molar value. Where “and” joins values, the source holds several entries; their conditions need not be identical. Equal values may be shown once. Not every detail of the peptide structures is certain; ends, links or a residue may be inferred. At least one compound was matched to its structure with a doubt left. Positions of bridges follow the written chain, without caps; N, C: chain ends. Residues, ends and D or L forms follow the SMILES beside them.

Legend:
[1] = tested on: live SARS-CoV-2 Virus (wildtype); assay: Neutralization of live SARS-CoV-2 virus, wildtype (Vero E6 cells, nucleoprotein ELISA); format: cell-based; details: isolate Seattle WA (IITRI)
[2] = tested on: Spike RBD coated magnetic beads / RAW 264.7 macrophages; assay: Antibody-dependent cellular phagocytosis (ADCP), RAW 264.7 macrophages and Spike RBD coated magnetic beads, flow cytometry; format: cell-based; details: 37° C., 2 hours, read-out: SARS-COV-2 ADCP EC50
In short: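 Spike RBD-coated magnetic beads were mixed with RAW 264.7 macrophages (50,000 cells per well) and compounds at set final concentrations. The mixture was incubated 2 hours at 37° C, and bead uptake was measured by flow cytometry.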

Row | SMILES | pEC50 [1] | pEC50 [2]
1 | CC[C@H](C)[C@H](NC(=O)[C@H](CC(C)C)NC(=O)[C@H](CC(=O)O)NC(=O)[C@H](CO)NC(=O)[C@@H](NC(=O)[C@H](CCCNC(=N)N)NC(=O)[C@H](CCSC)NC(=O)[C@H](CO)NC(=O)[C@H](C)NC(=O)[C@H](CCC(=O)O)NC(=O)[C@H](C)NC(=O)[C@H](Cc1c[nH]cn1)NC(=O)CNC(=O)[C@H](CC(C)C)NC(=O)[C@H](CCC(=O)O)NC(=O)[C@H](CC(=O)O)NC(=O)[C@H](CC(C)C)NC(=O)[C@H](CC(C)C)NC(=O)[C@H](CCCNC(=N)N)NC(=O)[C@H](CCSC)NC(=O)[C@@H](NC(=O)[C@H](CCC(=O)O)NC(=O)[C@H](Cc1ccc(O)cc1)NC(=O)[C@@H](NC(=O)[C@H](CCCCN)NC(=O)[C@H](CCC(N)=O)NC(=O)[C@H](CC(C)C)NC(=O)[C@@H](NC(=O)[C@H](Cc1c[nH]c2ccccc12)NC(=O)[C@H](CCC(=O)O)NC(=O)[C@H](CCCCN)NC(=O)[C@H](CC(=O)O)NC(C)=O)[C@@H](C)CC)[C@@H](C)CC)[C@@H](C)CC)C(C)C)C(=O)N[C@@H](Cc1ccc(O)cc1)C(=O)N[C@@H](CCC(=O)O)C(=O)N[C@@H](Cc1ccccc1)C(=O)N[C@@H](CCSC)C(=O)N[C@@H](CCCCN)C(=O)N[C@@H](CCCCN)C(=O)NCC(=O)NCCOCCOCCOCCOCCOCCOCCOCCOCCC(=O)NCCOCCOCCOCCOCCOCCOCCOCCOCCC(=O)N[C@@H](CC(=O)O)C(=O)N[C@H]1CSSC[C@@H](C(=O)N[C@H](C(N)=O)[C@@H](C)O)NC(=O)[C@H](Cc2c[nH]c3ccccc23)NC(=O)[C@H](C(C)C)NC(=O)[C@H](CC(C)C)NC(=O)[C@H](CCC(=O)O)NC(=O)CNC(=O)[C@H](CC(C)C)NC(=O)[C@H](Cc2c[nH]cn2)NC(=O)[C@H](Cc2c[nH]c3ccccc23)NC(=O)[C@H](C)NC1=O [Compound 149] | 8.74 | 8.62
2 | CC[C@H](C)[C@H](NC(=O)[C@H](CC(C)C)NC(=O)[C@H](CC(=O)O)NC(=O)[C@H](CO)NC(=O)[C@@H](NC(=O)[C@H](CCCNC(=N)N)NC(=O)[C@H](CCSC)NC(=O)[C@@H]1CSSC[C@H](NC(=O)[C@H](CC(C)C)NC(=O)[C@H](CCCNC(=N)N)NC(=O)[C@H](CCSC)NC(=O)[C@@H](NC(=O)[C@H](CCC(=O)O)NC(=O)[C@H](Cc2ccc(O)cc2)NC(=O)[C@@H](NC(=O)[C@H](CCCCN)NC(=O)[C@H](CCC(N)=O)NC(=O)[C@H](CC(C)C)NC(=O)[C@@H](NC(=O)[C@H](Cc2c[nH]c3ccccc23)NC(=O)[C@H](CCC(=O)O)NC(=O)[C@H](CCCCN)NC(=O)[C@H](CC(=O)O)NC(C)=O)[C@@H](C)CC)[C@@H](C)CC)[C@@H](C)CC)C(=O)N[C@@H](CC(=O)O)C(=O)N[C@@H](CCC(=O)O)C(=O)N[C@@H](CC(C)C)C(=O)NCC(=O)N[C@@H](Cc2c[nH]cn2)C(=O)N[C@@H](C)C(=O)N[C@@H](CCC(=O)O)C(=O)N[C@@H](C)C(=O)N1)C(C)C)C(=O)N[C@@H](Cc1ccc(O)cc1)C(=O)N[C@@H](CCC(=O)O)C(=O)N[C@@H](Cc1ccccc1)C(=O)N[C@@H](CCSC)C(=O)N[C@@H](CCCCN)C(=O)N[C@@H](CCCCN)C(=O)NCC(N)=O [Compound 175] (Ac-DKEWILQKIYEIMRLCDELGHAEACMRVSDLIYEFMKKG-NH2; disulfide 16-25) | 7.68 | –
3 | CC[C@H](C)[C@H](NC(=O)[C@H](CC(C)C)NC(=O)[C@H](CC(=O)O)NC(=O)[C@H](CO)NC(=O)[C@@H](NC(=O)[C@H](CCCNC(=N)N)NC(=O)[C@H](CCSC)NC(=O)[C@@H]1CSSC[C@H](NC(=O)[C@H](CC(C)C)NC(=O)[C@H](CCCNC(=N)N)NC(=O)[C@H](CCSC)NC(=O)[C@@H](NC(=O)[C@H](CCC(=O)O)NC(=O)[C@H](Cc2ccc(O)cc2)NC(=O)[C@@H](NC(=O)[C@H](CCCCN)NC(=O)[C@H](CCC(N)=O)NC(=O)[C@H](CC(C)C)NC(=O)[C@@H](NC(=O)[C@H](Cc2c[nH]c3ccccc23)NC(=O)[C@H](CCC(=O)O)NC(=O)[C@H](CCCCN)NC(=O)[C@H](CC(=O)O)NC(=O)[C@H](CO)NC(C)=O)[C@@H](C)CC)[C@@H](C)CC)[C@@H](C)CC)C(=O)N[C@@H](CC(=O)O)C(=O)N[C@@H](CCC(=O)O)C(=O)N[C@@H](CC(C)C)C(=O)NCC(=O)N[C@@H](Cc2c[nH]cn2)C(=O)N[C@@H](C)C(=O)N[C@@H](CCC(=O)O)C(=O)N[C@@H](C)C(=O)N1)C(C)C)C(=O)N[C@@H](Cc1ccc(O)cc1)C(=O)N[C@@H](CCC(=O)O)C(=O)N[C@@H](Cc1ccccc1)C(=O)N[C@@H](CCSC)C(=O)N[C@@H](CCCCN)C(=O)N[C@@H](CCCCN)C(=O)NCC(N)=O [Compound 176] | 8.11 and > 8.30 | –
4 | CC[C@H](C)[C@H](NC(=O)[C@H](CC(C)C)NC(=O)[C@H](CC(=O)O)NC(=O)[C@H](CO)NC(=O)[C@@H](NC(=O)[C@H](CCCNC(=N)N)NC(=O)[C@H](CCSC)NC(=O)[C@H](CO)NC(=O)[C@H](C)NC(=O)[C@H](CCC(=O)O)NC(=O)[C@H](C)NC(=O)[C@H](Cc1c[nH]cn1)NC(=O)CNC(=O)[C@H](CC(C)C)NC(=O)[C@H](CCC(=O)O)NC(=O)[C@H](CC(=O)O)NC(=O)[C@H](CC(C)C)NC(=O)[C@H](CC(C)C)NC(=O)[C@H](CCCNC(=N)N)NC(=O)[C@H](CCSC)NC(=O)[C@@H](NC(=O)[C@H](CCC(=O)O)NC(=O)[C@H](Cc1ccc(O)cc1)NC(=O)[C@@H](NC(=O)[C@H](CCCCN)NC(=O)[C@H](CCC(N)=O)NC(=O)[C@H](CC(C)C)NC(=O)[C@@H](NC(=O)[C@H](Cc1c[nH]c2ccccc12)NC(=O)[C@H](CCC(=O)O)NC(=O)[C@H](CCCCN)NC(=O)[C@H](CC(=O)O)NC(C)=O)[C@@H](C)CC)[C@@H](C)CC)[C@@H](C)CC)C(C)C)C(=O)N[C@@H](Cc1ccc(O)cc1)C(=O)N[C@@H](CCC(=O)O)C(=O)N[C@@H](Cc1ccccc1)C(=O)N[C@@H](CCSC)C(=O)N[C@@H](CCCCN)C(=O)N[C@@H](CCCCN)C(=O)NCC(=O)N[C@@H](CC(=O)O)C(=O)N[C@@H](CCC(=O)O)C(=O)N[C@@H](CCCNC(=N)N)C(=O)N[C@@H](CC(C)C)C(=O)N[C@@H](CC(C)C)C(=O)N[C@@H](CCC(=O)O)C(=O)N[C@@H](CCC(=O)O)C(=O)N[C@@H](C)C(=O)N[C@@H](CCC(=O)O)C(=O)N[C@@H](CCCNC(=N)N)C(=O)N[C@@H](CC(C)C)C(=O)N[C@@H](CC(C)C)C(=O)N[C@@H](CCC(=O)O)C(=O)N[C@@H](CCC(=O)O)C(=O)N[C@H](C(=O)N[C@@H](CCC(=O)O)C(=O)N[C@@H](CCCNC(=N)N)C(=O)NCCOCCOCCOCCOCCOCCOCCOCCOCCC(=O)NCCOCCOCCOCCOCCOCCOCCOCCOCCC(=O)O)C(C)C [Compound 255] | 9.49 | –
